{
  "source": "paper PMC12136788",
  "binders": {"B1": {"name": "chr2:92227778:92227779:-_ENSMUSG00000027223_ENSMUST00000050312|mus_hu|FALSE|FALSE (ssRNA)", "RNA": "GGGAGUUCUACAGUCCGACGAUCUGUCUUCAGGGGUGAGGAUGAUCGAGACACCCGAUCCUGCCAACUGUGCUUUUUGCCCAGAGAAUUAUUAUUCAGUGUGUCCUGAGACCGCGGCACCUGCGGAAAGAGGUUGAGCGUGGUCAACAGAGGAUUGAGCAUCA"}, "B2": {"name": "chr5:37680062:37680063:+_ENSMUSG00000029121_ENSMUST00000031004|mus_hu|mus_mus_mus_hu_False|78_98 (ssRNA)", "RNA": "GGGAGUUCUACAGUCCGACGAUCUUUGGGUGUAGCUGGCACCUCGUACACAGGACCAUCGUACAUGCCCCUGGAAACCCCUUGCAAUCCAAAAACCUUAUUCCUGAUUUUGACGCGCUGGUACAGGUGCUCCGGGAACGCCUUCAACAGAGGAUUGAGCAUCA"}, "B3": {"name": "chr12:66249844:66249845:-_ENSMUSG00000047534_ENSMUST00000052201|mus_hu|motif|central (ssRNA)", "RNA": "GGGAGUUCUACAGUCCGACGAUCGGGAUGCCUAUUUGUCUUAUCAGAUCCUACUGCCUCAGUAAUUGGAAACUCUUUCCGGACACCAGACUUCUGAAGAGUUUCUUUGACGGAAGGUCUAGCUUUCUUUUGUUUGAUAUAAAACAACAGAGGAUUGAGCAUCA"}, "B4": {"name": "chr7:141450121:141450122:+_ENSG00000106028_ENST00000265304|hu_mus|hu_hu_hu_mus_True|18_18 (ssRNA)", "RNA": "GGGAGUUCUACAGUCCGACGAUCUCAUCCGUUCUAUGCCUUUUCUUUUGUCUGGUCACUCAGAAAUAUAAUGUUAUCAGCUAUGAUUGUUGUUGCUUGCCGCCUCACAUUGUUUUUAUCCAUGUAUUCGCCAUAGUCCACUUUCAACAGAGGAUUGAGCAUCA"}, "B5": {"name": "chr1:151007788:151007789:+_ENSG00000143363_ENST00000271620|hu_mus|FALSE|FALSE (ssRNA)", "RNA": "GGGAGUUCUACAGUCCGACGAUCCUCGCUGCUGGGUCACCAUUACAACCCUGUACAUGCUACAUGAGGCUAAGUUCCUUGGUACAAUCACACAUAAACACGAAACAAUCCAGUGACCCAGAGCGCGAACGCUCCCAGGGAGGACAACAGAGGAUUGAGCAUCA"}, "B6": {"name": "chr4:76721835:76721836:+_ENSG00000138768_ENST00000264904|hu_mus|hu_hu_hu_mus_True|28_68 (ssRNA)", "RNA": "GGGAGUUCUACAGUCCGACGAUCGUUUGGCUGGGGUUUCUGAGACGCUCUGGAAUAUAACUCAUGUUGCUAAUAAAAUCCUAGUUUCUCUAUGAAAUUCUCUUUGCAAUCCUCUUCCUCUAUUAGUUGCUUUAGUUUCUCUUUCAACAGAGGAUUGAGCAUCA"}},
  "note": "The list shows a part of the results.",
  "data": [
    {"target": "T1, UNK ZnF1-3 (human, UniProt Q9C0B0 31-174)", "T1 sequence": "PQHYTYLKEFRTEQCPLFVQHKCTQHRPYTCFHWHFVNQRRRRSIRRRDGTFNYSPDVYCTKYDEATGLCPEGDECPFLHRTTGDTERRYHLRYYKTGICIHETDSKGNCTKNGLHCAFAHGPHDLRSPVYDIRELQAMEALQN", "assay": "nsRBNS (natural sequence RNA bind-n-seq); RBNS binding buffer (assumed for nsRBNS): 25 mM Tris pH 7.5, 150 mM KCl, 3 mM MgCl2, 0.01% Triton X-100, 500 ug/ml BSA, 20 U/ml SUPERase-In, 4 C; UNK is unkempt and MSI1 is Musashi-1; names of the RNAs are library labels; protein concentration not given here; high values mean tight binding", "units": {"binding signal": "enrichment R"}, "values": [
      {"binder": "B1", "binding signal": 1.56},
      {"binder": "B2", "binding signal": 0.817},
      {"binder": "B3", "binding signal": 0.769},
      {"binder": "B4", "binding signal": 0.367},
      {"binder": "B5", "binding signal": 0.654},
      {"binder": "B6", "binding signal": 0.605}
    ]}
  ]
}
